{"source": "paper PMC4133157", "binders": {"B1": {"name": "HA::SLT-1::Gaussia luciferase (ligand, UniProt G5EFX6 17-1410)", "chain": "CPAECVCVDRTVSCVGQQLTEVPQNIPNDTIRLDLQDNEITKIGPNDFSSLMNLKALQLMDNQIVTIHNQSFSSLVFLQKLRLSRNRIRHLPDNVFQNNLKLTHLDLSENDITVVSDAQLQGPEFLEVLNLDKNHIFCLENNVISSWVSLEVLTLNGNRLTTFEEPSNARFRQLDLFNNPWNCDCRLRWMRKWLEKAEGQNKTVCATPLNLQGSSIEILQDKFMTCSGNRKRRYKKTCETAEICPLPCTCTGTTVDCRDSGLTYVPTNLPPSTTEIRLEQNQISSIPSHSFKNLKNLTRLDLSKNIITEIQPKAFLGLHNLHTLVLYGNNITDLKSDTFEGLGSLQLLLLNANQLTCIRRGTFDHVPKLSMLSLYDNDIKSISEVTFQNLTSLSTLHLAKNPLICDCNLQWLAQINLQKNIETSGARCEQPKRLRKKKFATLPPNKFKCKGSESFVSMYADSCFIDSICPTQCDCYGTTVDCNKRGLNTIPTSIPRFATQLLLSGNNISTVDLNSNIHVLENLEVLDLSNNHITFINDKSFEKLSKLRELRLNDNKLHHFSSMVLDEQSNLEILDLSGNNIQCFSSIFFNKATRIREIKVIGNDLLCDCRILPLMSWLRSNSSHSIDIPPCQQFQYSDNESDKQRCAAFPEETCSDDSNLCPPKCSCLDRVVRCSNKNLTSFPSRIPFDTTELYLDANYINEIPAHDLNRLYSLTKLDLSHNRLISLENNTFSNLTRLSTLIISYNKLRCLQPLAFNGLNALRILSLHGNDISFLPQSAFSNLTSITHIAVGSNSLYCDCNMAWFSKWIKSKFIEAGIARCEYPNTVSNQLLLTAQPYQFTCDSKVPTKLATKCDLCLNSPCKNNAICETTSSRKYTCNCTPGFYGVHCENQIDACYGSPCLNNATCKVAQAGRFNCYCNKGFEGDYCEKNIDDCVNSKCENGGKCVDLINSYRCDCPMEYEGKHCEDKLEYCTKKLNPCENNGKCIPINGSYSCMCSPGFTGNNCETNIDDCKNVECQNGGSCVDGILSYDCLCRPGYAGQYCEIPPMMDMEYQKTDACQQSACGQGECVASQNSSDFTCKCHEGFSGPSCDRQMSVGFKNPGAYLALDPLASDGTITMTLRTTSKIGILLYYGDDHFVSAELYDGRVKLVYYIGNFPASHMYSSVKVNDGLPHRISIRTSERKCFLQIDKNPVQIVENSGKSDQLITKGKEMLYIGGLPIEKSQDAKRRFHVKNSESLKGCISSITINEVPINLQQALENVNTEQSCSATVNFCAGIDCGNGKCTNNALSPKGYMCQCDSHFSGEHCDEKRIKCDKQKFRRHHIENECRSVDRIKIAECNGYCGGEQNCCTAVKKKQRKVKMICKNGTTKISTVHIIRQCQCEPTKSVLSEK"}}, "key": {"[1]": {"target": "T1, 3XFLAG::EVA-1 (HEK293T) (C. elegans) (UniProt Q9XU98)", "T1 sequence": "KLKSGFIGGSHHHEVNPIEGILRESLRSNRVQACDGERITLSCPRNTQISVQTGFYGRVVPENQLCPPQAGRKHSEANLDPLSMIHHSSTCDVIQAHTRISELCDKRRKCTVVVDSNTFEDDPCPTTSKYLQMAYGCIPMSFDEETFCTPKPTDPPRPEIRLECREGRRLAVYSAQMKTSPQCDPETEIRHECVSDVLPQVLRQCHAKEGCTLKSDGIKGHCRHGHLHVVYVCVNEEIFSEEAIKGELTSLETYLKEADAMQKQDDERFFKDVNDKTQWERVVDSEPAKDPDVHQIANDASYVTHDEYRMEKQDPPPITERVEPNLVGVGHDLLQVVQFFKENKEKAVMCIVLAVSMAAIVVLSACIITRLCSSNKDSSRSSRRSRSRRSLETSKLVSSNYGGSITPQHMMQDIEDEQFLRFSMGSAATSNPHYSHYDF", "test": "co-IP; FLAG-tagged receptor on transfected HEK293T cells incubated with 10x concentrated conditioned medium holding the HA- and Gaussia luciferase-tagged ligand, 4 hours at 4°C; cells lysed in TNTE buffer (0.5% Triton X-100), anti-FLAG immunoprecipitation, luciferase activity of the washed immunoprecipitate, normalised to receptor level"}, "[2]": {"target": "T2, 3XFLAG::UNC-40 (HEK293T) (C. elegans) (UniProt G5EF96)", "T2 sequence": "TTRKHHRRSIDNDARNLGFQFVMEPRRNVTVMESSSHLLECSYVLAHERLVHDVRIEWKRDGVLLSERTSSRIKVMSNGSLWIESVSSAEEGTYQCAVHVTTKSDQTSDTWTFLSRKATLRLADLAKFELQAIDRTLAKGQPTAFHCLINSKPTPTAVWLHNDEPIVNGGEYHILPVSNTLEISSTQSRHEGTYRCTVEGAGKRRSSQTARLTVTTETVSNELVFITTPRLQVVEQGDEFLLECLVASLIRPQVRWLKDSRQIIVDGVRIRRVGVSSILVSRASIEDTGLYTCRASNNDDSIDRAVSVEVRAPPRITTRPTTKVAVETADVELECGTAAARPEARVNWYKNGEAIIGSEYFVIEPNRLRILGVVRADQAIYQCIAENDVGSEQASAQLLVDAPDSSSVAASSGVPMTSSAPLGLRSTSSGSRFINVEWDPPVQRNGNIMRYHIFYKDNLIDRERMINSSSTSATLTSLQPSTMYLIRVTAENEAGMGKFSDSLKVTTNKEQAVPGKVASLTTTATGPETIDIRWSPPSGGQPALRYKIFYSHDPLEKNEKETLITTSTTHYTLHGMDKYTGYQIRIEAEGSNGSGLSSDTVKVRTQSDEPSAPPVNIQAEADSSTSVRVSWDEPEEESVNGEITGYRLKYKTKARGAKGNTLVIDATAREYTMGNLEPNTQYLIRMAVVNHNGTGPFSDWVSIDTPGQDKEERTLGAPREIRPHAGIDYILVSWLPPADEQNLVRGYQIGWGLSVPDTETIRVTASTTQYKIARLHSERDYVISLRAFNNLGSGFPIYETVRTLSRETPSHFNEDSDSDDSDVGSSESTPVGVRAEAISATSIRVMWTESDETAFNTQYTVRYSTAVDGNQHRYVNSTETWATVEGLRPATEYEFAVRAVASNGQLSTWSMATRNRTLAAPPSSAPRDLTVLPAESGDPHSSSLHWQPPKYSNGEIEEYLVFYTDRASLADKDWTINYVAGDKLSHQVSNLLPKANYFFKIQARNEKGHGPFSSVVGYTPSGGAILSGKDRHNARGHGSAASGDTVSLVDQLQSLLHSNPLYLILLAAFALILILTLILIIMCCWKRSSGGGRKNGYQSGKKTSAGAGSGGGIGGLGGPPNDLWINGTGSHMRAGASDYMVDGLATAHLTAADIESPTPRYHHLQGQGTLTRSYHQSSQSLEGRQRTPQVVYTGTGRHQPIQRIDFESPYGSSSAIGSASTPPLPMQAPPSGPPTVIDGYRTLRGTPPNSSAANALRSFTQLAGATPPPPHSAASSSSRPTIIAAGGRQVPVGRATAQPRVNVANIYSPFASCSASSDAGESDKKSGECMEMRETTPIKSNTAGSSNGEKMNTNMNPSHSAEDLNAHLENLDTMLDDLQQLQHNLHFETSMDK", "test": "co-IP; FLAG-tagged receptor on transfected HEK293T cells incubated with 10x concentrated conditioned medium holding the HA- and Gaussia luciferase-tagged ligand, 4 hours at 4°C; cells lysed in TNTE buffer (0.5% Triton X-100), anti-FLAG immunoprecipitation, luciferase activity of the washed immunoprecipitate, normalised to receptor level"}}, "note": "These are yes or no findings as the source states them, for the method shown. In cells and extracts the contact can be indirect. Some entries that bind do so weakly or less than the wild type. Tags and fused reporters may be left off the sequences shown."}
{"binder": "B1", "values": [{"measurement": "binding", "setting": "[1]", "value": "binds"}, {"measurement": "binding", "setting": "[2]", "value": "no binding"}]}
